Hit rate of the full screen: of about 360,000 compounds, about 270 (0.075%) were called active. The shares of active, inactive and inconclusive entries below differ from those in the screen. Calls come from the whole dose curve; as a rule, active = well fitted activation curve with a large enough effect; inconclusive = small, poorly fitted or top-dose-only effect; inactive = no such curve, though single readings can be large or run the other way. No potency is given beside an inconclusive call; the fits are too rough.
target: Rap guanine nucleotide exchange factor 3 (Homo sapiens) (UniProt O95398); assay: qHTS for Agonist of cAMP-regulated guanine nucleotide exchange factor 3 (EPAC1): primary screen; conditions: biochemical assay; note: nearly all actives have a fitted effect of over 60% in size
Source text: In multi-cellular eukaryotic organisms, the effects of cAMP are transduced by two ubiquitously-expressed intracellular cAMP receptors, the classic protein kinase A/cAMP-dependent protein kinase (PKA/cAPK) and the more recently discovered exchange protein directly activated by cAMP/cAMP-regulated guanine nucleotide exchange factor (EPAC/cAMP-GEF). Both PKA and EPAC are ubiquitously expressed in all tissues, and an increase in intracellular cAMP levels will lead to the activation of both PKA and EPAC. Therefore, careful dissections of the individual role and relative contribution of EPAC and PKA within the overall cAMP signaling in various model systems are critical for further elucidating the mechanism of cAMP signaling. To date no EPAC-specific antagonists and agonist, as well as isoform-specific agonists have been reported, and developing EPAC-specific pharmacological probes to determine the physiological functions that EPAC play in the overall cAMP-mediated signaling remains a major challenge within the research field. Furthermore, identified regulators of EPAC may lead to new mechanism-based therapeutic strategies specifically targeting the EPAC / cAMP-signaling components as EPAC has been implicated to play important roles in major human pathological conditions such as diabetes, heart disease, and cancer.
This qHTS will be used to screen the Molecular Libraries Small Molecule Repository (MLSMR) as a concentration-titration series using the NCGC unique quantitative screening (qHTS) platform to find activators for EPAC1. In addition, this assay will also be used as a counterscreen for the EPAC2 qHTS. This fluorescent based assay is developed and validated for EPAC1 that measures exchange using EPAC effector Rap1 complex with BODIPY-GDP, a GDP analog with a tethered fluorophores. Activators are identified by monitoring the change in fluorescence signal as the exchanged free BODIPY-GDP has a reduced fluorescence compared to Rap1-bound BODIPY-GDP. Increase in signal (activation) is the desired outcome for the EPAC1 agonist while no activity in this assay is desired for the EPAC2 agonist counterscreen.
[1] de Rooij, J., Zwartkruis, F. J., Verheijen, M. H., Cool, R. H., Nijman, S. M., Wittinghofer, A., and Bos, J.L. (1998) Nature 396, 474-477
NIH Chemical Genomics Center [NCGC]
NIH Molecular Libraries Probe Centers Network [MLPCN]
Assay Submitter (PI): Xiaodong Cheng, The University of Texas Medical Branch
Briefly, three uL of reagents (100 nM EPAC1, 250 nM RAP1B-BODIPY-GDP, 50 uM GDP) were dispensed into a 1536-well Greiner black solid-bottom medium binding assay plate. Controls and test compounds (23 nL) were transferred to the plate via a Kalypsys pin tool equipped with a 1536-pin array. The plates were centrifuged at 1,000 rpm for 15 seconds followed by 5 minute incubation at room temperature. The assay plates were read at 5 minute intervals for 30 minutes in the ViewLux plate reader using 480nm excitation and 540nm emission filters. The results were normalized to the agonist positive control of 6.5 mM cAMP.
Potency is the fitted concentration of half-maximal effect; tags give direction and shape of the fitted curve.

UniProt O95398, sequence (O95398 whole entry, looked up): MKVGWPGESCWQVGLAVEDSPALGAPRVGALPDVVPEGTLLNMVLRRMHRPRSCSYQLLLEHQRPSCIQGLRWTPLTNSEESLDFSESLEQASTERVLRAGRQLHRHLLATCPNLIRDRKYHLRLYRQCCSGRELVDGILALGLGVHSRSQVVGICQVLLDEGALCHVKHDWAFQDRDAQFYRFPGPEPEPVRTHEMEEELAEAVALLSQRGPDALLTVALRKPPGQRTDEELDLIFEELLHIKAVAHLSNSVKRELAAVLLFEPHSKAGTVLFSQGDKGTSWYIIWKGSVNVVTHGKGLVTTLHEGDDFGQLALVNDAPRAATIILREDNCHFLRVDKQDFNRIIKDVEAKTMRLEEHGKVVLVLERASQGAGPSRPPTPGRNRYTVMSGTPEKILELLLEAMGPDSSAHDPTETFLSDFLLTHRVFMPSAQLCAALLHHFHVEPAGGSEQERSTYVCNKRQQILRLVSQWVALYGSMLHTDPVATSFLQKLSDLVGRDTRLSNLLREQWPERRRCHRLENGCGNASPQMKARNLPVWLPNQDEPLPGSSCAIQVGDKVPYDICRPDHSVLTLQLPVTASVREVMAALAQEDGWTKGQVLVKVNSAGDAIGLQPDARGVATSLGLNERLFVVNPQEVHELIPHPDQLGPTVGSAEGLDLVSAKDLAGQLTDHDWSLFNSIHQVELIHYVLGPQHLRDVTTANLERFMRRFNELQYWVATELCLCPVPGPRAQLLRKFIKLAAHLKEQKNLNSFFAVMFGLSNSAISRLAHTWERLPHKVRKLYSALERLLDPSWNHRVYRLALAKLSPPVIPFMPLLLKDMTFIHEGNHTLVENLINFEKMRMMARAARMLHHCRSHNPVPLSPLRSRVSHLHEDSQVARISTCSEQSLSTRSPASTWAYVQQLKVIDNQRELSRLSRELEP

| Compound | Potency |
| --- | --- |
| CN1Cc2c(c(C#N)c(N)n(C)c2=S)CC1(C)C | inconclusive [activator, partial curve] |
| O=C(Nc1ccc(Cl)cc1C(=O)c1ccccc1)c1ccccc1 | inconclusive [activator, partial curve] |
| Cc1ccc(C)c(Cn2c(C(=O)O)c(C=O)c3ccccc32)c1 | inconclusive [activator, partial curve] |
| C[C@H]1COc2cccc(N3CCN(C)CC3)c2S(=O)(=O)N1 | inconclusive [activator, partial curve] |
| O=c1[nH]c(=O)n(C2CCCCC2)c(O)c1/C=C/C=Nc1ccccc1 | inconclusive [activator, partial curve] |
| CCN1/C(=C/C=C/C2=[N+](CC)c3ccccc3C2(C)C)C(C)(C)c2ccccc21 | active: 56.2 µM |
| O=c1[nH]c(=S)n(-c2ccccc2F)c(O)c1C=Nc1ccc(N2CCOCC2)cc1 | active: 56.2 µM |
| O=C1NC(=O)N(c2ccc3c(c2)OCO3)C(=O)/C1=C/c1ccc(N2CCCC2)o1 | inconclusive [activator, partial curve] |
| CCN(CC)c1ccc(N=Cc2c(O)n(-c3cc(OC)ccc3OC)c(=O)[nH]c2=O)cc1 | inconclusive [activator, partial curve] |
| Nc1ccc2c3c(cccc13)-c1ccccc1-2 | inconclusive [activator, single point] |
| CCN(CC)c1ccc(/C=C2\C(=O)NC(=S)N(c3ccc(OC)cc3OC)C2=O)o1 | inconclusive [activator, partial curve] |
| Nc1c(Br)cc2c3c(cccc13)-c1ccccc1-2 | inconclusive [activator, partial curve] |
| Cc1ccc(CN2CCCN(Cc3ccccc3C)S2(=O)=O)cc1 | inconclusive [activator, partial curve] |
| CN1/C(=C\C=C2C(=O)NC(=S)NC2=O)C(C)(C)c2ccccc21 | inconclusive [activator, full curve, poor fit] |
| COCCNC(=O)Cn1cc(/C=C2\C(=O)NC(=O)N(c3ccccc3F)C2=O)c2ccccc21 | inconclusive [activator, single point] |
| Cc1cc(C)cc(N2C(=O)/C(=C\c3ccc(N4CCN(C)CC4)o3)C(=O)NC2=S)c1 | inconclusive [activator, partial curve] |
| COc1ccc(/C=C2\Oc3cc(OC(=O)N4CCOCC4)ccc3C2=O)c(OC)c1 | inconclusive [activator, full curve, poor fit] |
| Cc1cc(C=C(C#N)C#N)ccc1N1CCCC1 | inconclusive [activator, partial curve] |
| Cc1cc(N(CCCl)CCCl)ccc1C=Cc1ccncn1 | inconclusive [activator, partial curve] |
| O=c1[nH]c(=O)n(Cc2ccc(F)cc2)c(O)c1C=NCC1CCCO1 (configuration not stated) | inconclusive [activator, single point] |
| CC1=NCCc2c1[nH]c1cc(O)ccc21 | active: 112 µM |

| Compound | Potency |
| --- | --- |
| Nc1ccc2ccc3cccc[n+]3c2c1 | active: 100 µM |
| Nc1ccc2nonc2c1[N+](=O)[O-] | inconclusive [activator, partial curve] |
| Nc1c(C(=O)NCCc2ccccc2)c2nc3ccccc3nc2n1CCN1CCOCC1 | inconclusive [activator, partial curve] |
| Oc1ccc(/C=N/NP(=S)(c2ccccc2)c2ccccc2)cc1 | inconclusive [activator, partial curve] |
| CN1/C(=C\C=C2C(=O)NC(=O)NC2=O)C(C)(C)c2ccccc21 | inconclusive [activator, partial curve] |
| CCCOP(=O)(OCCC)C(Nc1cccc(C(F)(F)F)c1)c1ccc(C)cc1 (configuration not stated) | inconclusive [activator, single point] |
| COc1ccc(-n2c(O)c(/C=C/C=Nc3ccccc3)c(=O)[nH]c2=O)cc1 | active: 100 µM |
| COC1C(C)OC(OC2CC(C)(O)Cc3cc4c(c(O)c32)C(=O)c2c(O)cc3c(c2C4=O)OC2OC3(C)C(O)C(N(C)C)C2O)C(OC)C1(C)OC (configuration not stated) | active: 100 µM |
| O=Cc1c(C(=O)O)n(Cc2ccc(Cl)cc2)c2ccccc12 | active: 44.7 µM |
| CCn1nc(-c2ccccc2)nc2c(=O)n(C)c(=O)nc1-2 | inconclusive [activator, single point] |
| CCN(CC)c1ccc(/C=C2\C(=O)NC(=S)N(C)C2=O)o1 | inconclusive [activator, partial curve] |
| CN(C)c1ccc(N=Cc2c(O)n(CCC3=CCCCC3)c(=O)[nH]c2=O)cc1 | inconclusive [activator, single point] |
| CC1=NN=C(c2ccc(N)cc2)c2cc3c(cc2C1)OCO3 | inconclusive [activator, partial curve] |
| O=[N+]([O-])c1ccc(N2CCCCCC2)c2nonc12 | active: 100 µM |
| COc1ccccc1Cc1c(-c2ccc(C)cc2)nc2cc(C)c(Br)c(C)n12 | inconclusive [activator, full curve] |
| O=c1[nH]c(=O)n(-c2ccccc2)c(O)c1/C=C/C=Nc1ccccc1 | inconclusive [activator, single point] |
| O=c1cc(C(F)(F)F)c2cc3c4c(c2o1)CCCN4CCC3 | inconclusive [activator, full curve, poor fit] |
| CCOC(=O)C1CCCN(c2ccc([N+](=O)[O-])c3nonc23)C1 (configuration not stated) | active: 89.1 µM |
| CCN(CC)c1ccc(N=Cc2c(O)n(-c3ccccc3C)c(=O)[nH]c2=O)cc1 | active: 100 µM |
| CN1C2CC(OC(=O)C(CO)c3ccccc3)CC1C1OC12 (configuration not stated) | inconclusive [activator, single point] |
| CCN(CC)C(=O)Cn1cc(C=C2C(=O)N(C)C(=O)N(C)C2=O)c2ccccc21 | inconclusive [activator, single point] |

— PubChem BioAssay AID720707 (National Center for Advancing Translational Sciences (NCATS), 2013)
